{"source": "paper PMC7940618", "about": "“Specific inhibition of the Survivin–CRM1 interaction by peptide-modified molecular tweezers” (Nature Communications, 2021)", "molecular_target": "T1, CRM1_1-1062VLV430AAA mutant (UniProt O14980, VLV430AAA)", "T1 construct": "nuclear export receptor CRM1, residues 1-1062 with VLV430AAA; pTGA20 vector obtained from Dr. Sonia Banuelos; source: E. coli BL21-CodonPlus-RIL, purified (HisTrap FF, TEV cleavage, HiTrap Q HP)", "T1 sequence (O14980 other isoform, or with tags, fused parts or gaps VLV430AAA | VLV430AAA | mutant)": "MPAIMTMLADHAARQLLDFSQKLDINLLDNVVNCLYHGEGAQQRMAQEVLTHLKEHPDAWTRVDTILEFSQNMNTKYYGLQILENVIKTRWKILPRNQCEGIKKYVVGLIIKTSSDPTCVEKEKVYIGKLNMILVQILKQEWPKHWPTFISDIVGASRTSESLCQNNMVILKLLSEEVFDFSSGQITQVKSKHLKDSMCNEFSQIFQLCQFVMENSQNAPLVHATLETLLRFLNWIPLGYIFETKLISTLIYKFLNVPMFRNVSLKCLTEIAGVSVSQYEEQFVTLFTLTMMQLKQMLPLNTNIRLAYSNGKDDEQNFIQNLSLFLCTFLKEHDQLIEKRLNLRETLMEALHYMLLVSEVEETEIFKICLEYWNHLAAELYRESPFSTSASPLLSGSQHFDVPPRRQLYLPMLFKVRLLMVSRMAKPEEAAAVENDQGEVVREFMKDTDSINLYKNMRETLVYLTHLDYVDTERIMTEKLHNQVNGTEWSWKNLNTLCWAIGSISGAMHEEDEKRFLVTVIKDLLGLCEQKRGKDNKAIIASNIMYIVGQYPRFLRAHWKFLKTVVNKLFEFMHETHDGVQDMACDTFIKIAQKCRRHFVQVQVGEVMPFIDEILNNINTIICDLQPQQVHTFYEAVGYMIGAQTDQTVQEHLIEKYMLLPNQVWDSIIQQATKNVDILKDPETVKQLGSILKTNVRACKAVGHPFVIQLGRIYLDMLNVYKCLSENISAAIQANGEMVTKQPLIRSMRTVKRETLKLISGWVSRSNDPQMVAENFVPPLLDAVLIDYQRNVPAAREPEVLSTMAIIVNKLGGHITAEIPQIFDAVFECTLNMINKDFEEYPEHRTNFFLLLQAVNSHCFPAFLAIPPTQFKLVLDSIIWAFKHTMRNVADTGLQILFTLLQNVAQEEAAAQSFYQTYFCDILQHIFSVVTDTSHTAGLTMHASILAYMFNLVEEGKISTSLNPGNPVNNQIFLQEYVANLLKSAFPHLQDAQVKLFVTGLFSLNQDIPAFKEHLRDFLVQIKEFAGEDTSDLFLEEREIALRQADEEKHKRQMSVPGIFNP", "experiment": "fluorescence polarisation; fluorescence anisotropy competition; Atto488-Survivin120 preincubated with CRM1_1-1062VLV430AAA at 1:5, titrated with tweezers to approx. 180 µM; PBS pH 7.4, 25 °C; n = 1", "conditions": "both partners purified"}
{"binder": "Atto488-labeled Survivin120 (domain or fragment, ATTO488-maleimide label (site not stated), Survivin (BIRC5 isoform alpha), human, […]; Named without GST, so the GST tag was probably cleaved (surmise); source: E. coli soluBL21, purified, labeled with ATTO488-maleimide) not shown", "values": [{"measurement": "binding result", "value": "binds"}]}
